Laboratory results as given in the supplement of paper PMC8728848.
This is one part of the list.

Columns and labels:
Assay in all cases: glycan array binding signal (z-score within array); higher = stronger binding
Conditions in all cases: glycan notation: IUPAC condensed, linker removed
[1] = target: Neu5Ac(a2-3)Gal(b1-3)GlcNAc6S
Method in brief: (§1)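 The binding signal is a Z-score computed within each array. Data were drawn from 3228 arrays in the Consortium for Functional Glycomics database, restricted to those with a known protein sequence. Scores were averaged over arrays of the same protein sequence at different concentrations or buffers, and over linkers, and negative values can be taken as non-binding.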

[2] = target: Neu5Ac(a2-3)Gal(b1-3)[Fuc(a1-4)]GlcNAc
Method in brief: as §1

[3] = target: Neu5Ac(a2-3)Gal(b1-3)[Fuc(a1-4)]GlcNAc(b1-3)Gal(b1-3)[Fuc(a1-4)]GlcNAc
Method in brief: as §1

[4] = target: Neu5Ac(a2-3)Gal(b1-3)[Fuc(a1-4)]GlcNAc(b1-3)Gal(b1-4)[Fuc(a1-3)]GlcNAc
Method in brief: as §1

[5] = target: Neu5Ac(a2-3)Gal(b1-3)[GlcNAc(b1-6)]GalNAc
Method in brief: as §1

[6] = target: Neu5Ac(a2-3)Gal(b1-3)[Neu5Ac(a2-6)]GalNAc
Method in brief: as §1

[7] = target: Neu5Ac(a2-3)Gal(b1-3)[Neu5Ac(a2-6)]GlcNAc(b1-3)[Fuc(a1-3)[Gal(b1-4)]GlcNAc(b1-6)]Gal(b1-4)Glc
Method in brief: as §1

[8] = target: Neu5Ac(a2-3)Gal(b1-3)]Neu5Ac(a2-3)Gal(b1-4)]GlcNAc
Method in brief: as §1

Neu5Ac(a2-3)Gal(b1-4)Glc = target: Neu5Ac(a2-3)Gal(b1-4)Glc
Method in brief: as §1

[9] = target: Neu5Ac(a2-3)Gal(b1-4)GlcNAc
Method in brief: as §1

[10] = target: Neu5Ac(a2-3)Gal(b1-4)GlcNAc(b1-2)Man
Method in brief: as §1

[11] = target: Neu5Ac(a2-3)Gal(b1-4)GlcNAc(b1-2)Man(a1-3)[GlcNAc(b1-4)][Neu5Ac(a2-3)Gal(b1-4)GlcNAc(b1-2)Man(a1-6)]Man(b1-4)GlcNAc(b1-4)GlcNAc
Method in brief: as §1

[12] = target: Neu5Ac(a2-3)Gal(b1-4)GlcNAc(b1-2)Man(a1-3)[Neu5Ac(a2-3)Gal(b1-4)GlcNAc(b1-2)Man(a1-6)]Man(b1-4)GlcNAc(b1-4)GlcNAc
Method in brief: as §1

[13] = target: Neu5Ac(a2-3)Gal(b1-4)GlcNAc(b1-2)Man(a1-3)[Neu5Ac(a2-3)Gal(b1-4)GlcNAc(b1-2)Man(a1-6)]Man(b1-4)GlcNAc(b1-4)[Fuc(a1-6)]GlcNAc
Method in brief: as §1

[14] = target: Neu5Ac(a2-3)Gal(b1-4)GlcNAc(b1-2)Man(a1-3)[Neu5Ac(a2-6)Gal(b1-4)GlcNAc(b1-2)Man(a1-6)]Man(b1-4)GlcNAc(b1-4)GlcNAc
Method in brief: as §1

[15] = target: Neu5Ac(a2-3)Gal(b1-4)GlcNAc(b1-2)[Neu5Ac(a2-3)Gal(b1-4)GlcNAc(b1-4)]Man(a1-3)[GlcNAc(b1-4)][Neu5Ac(a2-3)Gal(b1-4)GlcNAc(b1-2)[Neu5Ac(a2-3)Gal(b1-4)GlcNAc(b1-6)]Man(a1-6)]Man(b1-4)GlcNAc(b1-4)GlcNAc
Method in brief: as §1

[16] = target: Neu5Ac(a2-3)Gal(b1-4)GlcNAc(b1-2)[Neu5Ac(a2-3)Gal(b1-4)GlcNAc(b1-4)]Man(a1-3)[GlcNAc(b1-4)][Neu5Ac(a2-3)Gal(b1-4)GlcNAc(b1-4)Man(a1-6)]Man(b1-4)GlcNAc(b1-4)GlcNAc
Method in brief: as §1

[17] = target: Neu5Ac(a2-3)Gal(b1-4)GlcNAc(b1-2)[Neu5Ac(a2-3)Gal(b1-4)GlcNAc(b1-6)]Man(a1-6)[Neu5Ac(a2-3)Gal(b1-4)GlcNAc(b1-2)Man(a1-3)]Man(b1-4)GlcNAc(b1-4)GlcNAc
Method in brief: as §1

[18] = target: Neu5Ac(a2-3)Gal(b1-4)GlcNAc(b1-2)[Neu5Ac(a2-3)Gal(b1-4)GlcNAc(b1-6)]Man(a1-6)[Neu5Ac(a2-3)Gal(b1-4)GlcNAc(b1-2)Man(a1-3)][GlcNAc(b1-4)]Man(b1-4)GlcNAc(b1-4)GlcNAc
Method in brief: as §1

[19] = target: Neu5Ac(a2-3)Gal(b1-4)GlcNAc(b1-3)Gal
Method in brief: as §1

[20] = target: Neu5Ac(a2-3)Gal(b1-4)GlcNAc(b1-3)Gal(b1-3)GlcNAc
Method in brief: as §1

[21] = target: Neu5Ac(a2-3)Gal(b1-4)GlcNAc(b1-3)Gal(b1-4)GlcNAc
Method in brief: as §1

[22] = target: Neu5Ac(a2-3)Gal(b1-4)GlcNAc(b1-3)Gal(b1-4)GlcNAc(b1-2)Man(a1-3)[Neu5Ac(a2-3)Gal(b1-4)GlcNAc(b1-3)Gal(b1-4)GlcNAc(b1-2)Man(a1-6)]Man(b1-4)GlcNAc(b1-4)GlcNAc
Method in brief: as §1

[23] = target: Neu5Ac(a2-3)Gal(b1-4)GlcNAc(b1-3)Gal(b1-4)GlcNAc(b1-3)Gal(b1-4)GlcNAc
Method in brief: as §1

[24] = target: Neu5Ac(a2-3)Gal(b1-4)GlcNAc(b1-3)Gal(b1-4)GlcNAc(b1-3)Gal(b1-4)GlcNAc(b1-2)Man(a1-3)[Neu5Ac(a2-3)Gal(b1-4)GlcNAc(b1-3)Gal(b1-4)GlcNAc(b1-3)Gal(b1-4)GlcNAc(b1-2)Man(a1-6)]GalNAc
Method in brief: as §1

[25] = target: Neu5Ac(a2-3)Gal(b1-4)GlcNAc(b1-3)Gal(b1-4)GlcNAc(b1-3)GalNAc
Method in brief: as §1

[26] = target: Neu5Ac(a2-3)Gal(b1-4)GlcNAc(b1-3)Gal(b1-4)GlcNAc(b1-3)[Neu5Ac(a2-3)Gal(b1-4)GlcNAc(b1-3)Gal(b1-4)GlcNAc(b1-6)]GalNAc
Method in brief: as §1

[27] = target: Neu5Ac(a2-3)Gal(b1-4)GlcNAc(b1-3)Gal(b1-4)GlcNAc(b1-6)[Gal(b1-3)]GalNAc
Method in brief: as §1

[28] = target: Neu5Ac(a2-3)Gal(b1-4)GlcNAc(b1-3)Gal(b1-4)[Fuc(a1-3)]GlcNAc
Method in brief: as §1

[29] = target: Neu5Ac(a2-3)Gal(b1-4)GlcNAc(b1-3)GalNAc
Method in brief: as §1

B1: Als3-N (Candida albicans) (protein)
chain: KTITGVFNSFNSLTWSNAATYNYKGPGTPTWNAVLGWSLDGTSASPGDTFTLNMPCVFKFTTSQTSVDLTAHGVKYATCQFQAGEEFMTFSTLTCTVSNTLTPSIKALGTVTLPLAFNVGGTGSSVDLEDSKCFTAGTNTVTFNDGGKKISINVDFERSNVDPKGYLTDSRVIPSLNKVSTLFVAPQCANGYTSGTMGFANTYGDVQIDCSNIHVGITKGLNDWNYPVSSESFSYTKTCSSNGIFITYKNVPAGYRPFVDAYISATDVNSYTLSYANEYTCAGGYWQRAPFTLRWTGYRNSDAGSNGIVIVATTRTVTDSTTAVTTLPFDPNRDKTKTIEILKPIPTTTITTSYVGVTTSYLTKTAPIGETATVIVDIPYHTTTTVTSKWTGTITSTTTHTNPTDSIDTVIVQVP
[1]
  glycan array binding signal (z-score): -0.221
[2]
  glycan array binding signal (z-score): -0.209
[3]
  glycan array binding signal (z-score): -0.104
[4]
  glycan array binding signal (z-score): 0.004
[5]
  glycan array binding signal (z-score): 0.011
[6]
  glycan array binding signal (z-score): 0.127
[7]
  glycan array binding signal (z-score): -0.237
[8]
  glycan array binding signal (z-score): -0.216
Neu5Ac(a2-3)Gal(b1-4)Glc
  glycan array binding signal (z-score): -0.155
[9]
  glycan array binding signal (z-score): -0.241
[10]
  glycan array binding signal (z-score): -0.01
[11]
  glycan array binding signal (z-score): -0.08
[12]
  glycan array binding signal (z-score): -0.137
[13]
  glycan array binding signal (z-score): 0.105
[14]
  glycan array binding signal (z-score): -0.321
[15]
  glycan array binding signal (z-score): -0.066
[16]
  glycan array binding signal (z-score): -0.085
[17]
  glycan array binding signal (z-score): 0.647
[18]
  glycan array binding signal (z-score): -0.237
[19]
  glycan array binding signal (z-score): -0.308
[20]
  glycan array binding signal (z-score): -0.226
[21]
  glycan array binding signal (z-score): -0.127
[22]
  glycan array binding signal (z-score): 0.395
[23]
  glycan array binding signal (z-score): -0.185
[24]
  glycan array binding signal (z-score): 4.72
[25]
  glycan array binding signal (z-score): 0.294
[26]
  glycan array binding signal (z-score): 0.051
[27]
  glycan array binding signal (z-score): 0.08
[28]
  glycan array binding signal (z-score): -0.281
[29]
  glycan array binding signal (z-score): -0.068
